Results taken from the RNAGym collection of RNA variant scans (doi:10.1073/pnas.2313332121).
This sample is rich in variants without activity.

B1: TPR 5TU (parent)
chain: GGAUCUUCUCGAUCUAACAAAAAAGACAAAUCUGCCACAAAGCUUGAGAGCAUCUUCGGAUGCAGAGGCGGCAGCCUUCGGUGGCGCGAUAGCGCCAACGUUCUCAACUAUGACACGCAAAACGCGUGCUCCGUUGAAUGGAGUUUAUCAUG

Variants of: B1
Test: polymerase ribozyme fitness, log enrichment relative to wild type (log ratio); higher = more active; in vitro selection for triplet polymerase activity
Outline: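 Only genotypes with ≥10 input reads and ≥1 read per output were kept after Illumina sequencing of input and output libraries. These libraries were PCR-built, transcribed mutants of each subunit of a heterodimeric triplet polymerase ribozyme, each put through one triplicate in vitro selection round with frozen incubation at −7 °C, gel excision of extended constructs, streptavidin-bead capture and RT-PCR. Fitness is a logarithmic ratio of genotype enrichment to wild-type enrichment, from inverse-variance-weighted replicate averages, with the logarithm in base 2.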
With GGCUCUUCUCUAUCUAACAAAACAGACAAAUCUGCCACAAAGCUUGAGAGCAUCUUCGGUUGCAGAGGCGGGAGCCUUCGGUGGCGCGAUAGCGCAAACGUUCUCAACUAUGACACGCAAAACGCGUGCUCAGUUGAAUGGAGUUUAUCAUG [A3C G11U A23C A60U C72G C96A C132A] the “polymerase ribozyme fitness (log ratio)” value was at most -4.2.
With GGCUCUUCUCGAUCUAACAAAAAACACAAAUCUGCCACAAAGCUUGAGAGCAUCUUCGGAUGCAGAGGUGGCAGCCGUCGGUGACGCGAUAGCGCCAACGUUCUCAGCUAUGACACGCAAAACGCGUGCUCUGUUGAAUGGAGUUUAUCAUG [A3C G25C C69U U77G G84A A107G C132U] the “polymerase ribozyme fitness (log ratio)” value was at most -4.2.
With GGCUCUUCUCGAUCUAACAAAAAAGACAAAUCUACCACAAAGCUUGAGAGCAUCUUAGGAUGCAGAGGCGGCAGCAUUCGGUGGCGCGAUAGCUCCAACGUUCUCAACUAUGACACGCAAAACGCGUGCUCCUUUGAAUGGAGUUUAUCAUG [A3C G34A C57A C76A G94U G133U] the “polymerase ribozyme fitness (log ratio)” value was at most -4.2.
With GGCUCUUCUCGAUCUAACAAAAAAGACAAAUCUGCCACAAACCUUGAGAGCAUUCUGGGAUGCAGAGGCGGCAGCCUUCGGUGGCGCGAUAGCGCGAACGUUCUCAACUAUGACACGCAAAACGCGUACUCCGUUGAAUGGAGUUUAUCAUG [A3C G42C C54U U55C C57G C96G G128A] the “polymerase ribozyme fitness (log ratio)” value was at most -4.2.
For GGCUCUUCUCGAUCUAACAAAAAAGACAAAUCUGCCACAAAGCUUAGGAGCAUCUUCGGAUGCAGAGGCGGCAGCCUUCGGUGGCACGAUAGCGCCAAAGUUCUCAACUAUGACACGCAGUACGCGUGCUCCGUUGAAUGGAGUUUAUCAUG [A3C G46A A47G G86A C99A A120G A121U], the “polymerase ribozyme fitness (log ratio)” value was at most -4.2.
For GGCUCUUCUCGAUCUAACAAAAAAGACAAAUCUGCCACAAAGCUUGAUAGCAUCUUCGGAUGCAGAGGUGGCAGCCUUCGGUGGCGCGAUAGCGCCAACGUUCUCAACUAUGACACGCAAAACGCGUGCUCCGUUGAAUGGAGUUUAUCAUG [A3C G48U C69U], the “polymerase ribozyme fitness (log ratio)” value was -2.88.
With GGCUCUUCUCGAUCUAACAAAAAAGACAAAUCUGCCACAAAGCUUGAGAACAUCUUCGGAUGCAGAGGCGGCAGCCUUCGGUCGCGCGAUAGCGCCAACGCUCUCAACUAUGACACGCAAAACGCGUGCUCCGGUGAAUGCAGUUUAUCAUG [A3C G50A G83C U101C U134G G141C] the “polymerase ribozyme fitness (log ratio)” value was at most -4.2.
For GGCUCUUCUCGAUCUAACAAAAAAGACAAAUCUGCCACAAAGCUUGAGAGCAUCUUCAGAUGCAGAGGCGGCAGCCUUCGGUGGCGUGAUAGCGCCAACGUUCUCAACUAUGACACGCAAAACGCGUGCUCCGUUGAAUGGAGUUUAUCAUG [A3C G58A C87U], the “polymerase ribozyme fitness (log ratio)” value was -0.495.
For GGCUCUUCUCGAUCUAACAAAAAAGACAAAUCUGCCACAAAGCUUGAGAGCAUCUUCAGAUGCAGAGGCGGCAGCCUUCGGUGGCGCGAUAGCACCAACGUUCUCAACUAUGACACGCAAAACGCGUGCUCCGUUGAAUGGAGUUUAUCAUG [A3C G58A G94A], the “polymerase ribozyme fitness (log ratio)” value was -0.578.
For GGCUCUUCUCGAUCUAACAAAAAAGACAAAUCUGCCACAAAGCUUGAGAGCAUCUUCGAAUGCAGAGGCGGCAGCCUUCGGUGGGGCGAUAGCGCCAAUGUUCUCAACUAUGACACGCAGAACGCGUGCUCCGUUGAAUGGAGUUUAUCAUG [A3C G59A C85G C99U A120G], the “polymerase ribozyme fitness (log ratio)” value was at most -4.2.
For GGCUCUUCUCGAUCUAACAAAAAAGACAAAUCUGCCACAAAGCUUGAGAGCAUCUUCGGAUGCAGAGUCGGCAGCCUUCGGUGGCGAGAUAGCGCCAACGUUCUCAACUAUGACACGCAAAACGCGUGCUCCGUUGAAUGGAGCUUAUCAUG [A3C G68U C87A U144C], the “polymerase ribozyme fitness (log ratio)” value was at most -4.2.
With GGCUCUUCUCGAUCUAACAAAAAAGACAAAUCUGCCACAAAGCUUGAGAGCAUCUUCGGAUGCAGAGGCGGCAGCCUUCGGUGUCGGGAUAGCGCCAACGUUCUCAACUAUGACACGCAAAACACGUGCUCCGUUGAACGGAGUUUAUCAUG [A3C G84U C87G G124A U139C] the “polymerase ribozyme fitness (log ratio)” value was at most -4.2.
With GGCUCUUCUCGAUCUAACAAAAAAGACAAAUCUGCCACAAAGCUUGAGAGCAUCUUCGGAUGCAGAGGCGGCAGCCUUCGGUGGCACGAUAGCGCCAACGUUCUCAACUAUGACACGCAAAACGUGUGCUCCGUUGAAUGGAGUUUAUCAUG [A3C G86A C125U] the “polymerase ribozyme fitness (log ratio)” value was -2.79.
For GGCACUUCUCGAUCUAACAAAAAAGACAAAUCUGCCACAAAGCUUGAGAGCAUCUUCGGAUGCAGAGGCGUCAGCCUUCGGUGGCGCAAUAGCGCCAACGUUCUCAACUAUGACACGCAAAACGCGUGCUCCGUUGAAUGGAGUUUAUCAUG [A3C U4A G71U G88A], the “polymerase ribozyme fitness (log ratio)” value was at most -4.2.
For GGCCCUUCUCGAUCUAACCAAAAACACAAAUCUGCCACAAAGCUUGAGAGCAUCUUCGGAUGCAGAGGCGGCAGUCUUCGGUGGCGCGAUAGCGCGAACGUUCUCAGCUAUGACACGCAAAAUGCGUUCUCCGUUGAAUGGAGUUUAACAUG [A3C U4C A19C G25C C75U C96G A107G C123U G128U U148A], the “polymerase ribozyme fitness (log ratio)” value was at most -4.2.
For GGCGCUUCACGAUCUAACAAAAAAGACAAAUCUGCCACAGAGCUUGAUAACAUCUACGGAUGCAGAGGCGGCAGCCUUCGGUGGCUCGAUAGCGCCAACGUUCUCAACUAUGACACGCAAAACGCGUGCUUCGUUGAAUGGAGUUUAUCAUG [A3C U4G U9A A40G G48U G50A U56A G86U C131U], the “polymerase ribozyme fitness (log ratio)” value was at most -4.2.
With GGCGCUUCUCGAUCUAACAAAAAAGACAAAUCUGCCACAAAGCUUGAGAGCAUCUUCGGAUGCAGAGGCGGCAGCCAUCGGUGACGCGAUAGCGCCAACGUUCUCACCUAUGACACGCAAAACGCGUGCUCCGUUGAAUGGAGUUUAUCAUG [A3C U4G U77A G84A A107C] the “polymerase ribozyme fitness (log ratio)” value was at most -4.2.
In the case of GGCUCAUCUCGAUCUAACAAAAAAGCCAAAUCUGCCACAAAGCUUGAGAGCAUCUUUGGAUGCAGAGGCGGCAGCCUGCGGUGGCGCGAUAGCGCCAACGUUCUCAACUAGGACACGCAAAACGCGUGCUCCGUUGAAUGGAGUUCAUCAUG [A3C U6A A26C C57U U78G U111G U146C], the “polymerase ribozyme fitness (log ratio)” value is reported as at most -4.2.
With GGCUCAUCUCGAUCUAACAAAAAAGACAAAUCUGACACAAAGCUUGAGAGCAUCUUCGGAUGCAGAGGCGGCAGCCUUCGGUGGCGCGAUAGCGUCAACGUCGUCAACUAUGACACGCAAAACGCGUGCUCCGUUGAAUGGAUUUUAUCAUG [A3C U6A C35A C95U U102C C103G G143U] the “polymerase ribozyme fitness (log ratio)” value was at most -4.2.
